Results as given in the supplement of paper PMC10126150.
Sequences with one replicate were seen in a single cluster, so their values are uncertain.

Tested on: ATP
Test: switch fluorescence ratio, 500 uM ATP over buffer (Cy3 cluster intensity, sum of 5 cycles each) (fold (ratio)); higher = stronger signal-on switching upon ATP binding; sequences stand for … in TCGTCGGCAGCGTCAGATGTGTATAAGAGACAGTTTTTTTTTTTTTTTTTTTTTTTTT…TC
Conditions: aptamer strand: ATP DNA aptamer (quencher-CACCTGGGGGAGTATTGCGGAGGAAGG + anchor), 100 nM annealed; ATP concentration: 500 uM; one replicate
How it was run: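 Cy3-labelled switching-strand clusters on a modified Illumina MiSeq flow-cell were annealed to 100 nM quencher-labelled ATP aptamer and imaged first in selection buffer, then after 15 min with 500 uM ATP at 22 °C. NaOH stripping and re-annealing separated each of five buffer/ATP cycles, and clusters outside 100-1000 RFU were excluded. The fluorescence ratio sums target-cycle Cy3 intensity over buffer-cycle Cy3 intensity per cluster and averages it per switch-domain sequence.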
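Also: ATP exposure 15 min at 22 °C before imaging.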

Row | Sequence | switch fluorescence ratio
1 | ATCTAGGGG | 1.02
2 | TCCGGAACTT | 1.08
3 | TATCGAACA | 0.995
4 | GCACGGGATT | 1.08
5 | GCATGGGATT | 0.974
6 | CAAGTACAT | 1.28
7 | GGGTGTAGAC | 1.07
8 | ATTCCGACAG | 1.95
9 | ACTCAACTGG | 1.34
10 | CAGCAAGCAA | 6.26
11 | ACAGTAACGC | 1.07
12 | TTTAGAGAA | 0.94
13 | TTGCGGTCAC | 1
14 | GCGTGTGAAG | 1.03
15 | GCTTTAAAAC | 1.06
16 | CAGGCCGCTT | 0.996
17 | TTCGGATTGC | 0.992
18 | CCATGTACAG | 1.07
19 | ACGGGCCGTC | 0.985
20 | GCAAATCGGC | 0.99
21 | GTGGCAAGCA | 0.977
22 | AGGCAGAAAG | 1.01
23 | GAGGGACCA | 1.04
24 | GACCTGAGGA | 1.06
25 | TCTTGCTAAA | 1.47

Row | Sequence | switch fluorescence ratio
26 | GACCATGCCG | 1.04
27 | ATCGAGACTA | 1.04
28 | TCGGGAGAGA | 1.01
29 | GAGGGCTATG | 1.03
30 | TCCTAAAATG | 1.03
31 | AACAAACTAA | 1.04
32 | ACCCTAGTCG | 1.04
33 | CGCCACTAAA | 1.04
34 | TAAATGG | 1.06
35 | AGTATTAAG | 0.958
36 | CACCCAATTA | 1.05
37 | GAGTCGCAGT | 0.981
38 | ACAGTGCTG | 1
39 | AAACGGATCT | 0.986
40 | CGACAGGGGT | 4.33
41 | TCCAGCGCGC | 1.04
42 | AATTAGAACT | 1.01
43 | GTGTGTGTGT | 1.05
44 | TGGCGCGTAT | 1.01
45 | GTCGGATGTT | 0.986
46 | GAGGGGTTAT | 1.01
47 | CGCAAACGGG | 2.87
48 | TATGCGTTCG | 1.08
49 | ATGAATTACG | 1.04
50 | ATTTATGATC | 1.06

Row | Sequence | switch fluorescence ratio
51 | AAAGTGAGAG | 1
52 | GCACGGAGTT | 1.01
53 | ACGGCGAACG | 0.988
54 | CCTTGAGTGA | 1.22
55 | AAGACAAGTG | 0.971
56 | CTTAGCTAA | 1.03
57 | ATTGAGTCT | 0.928
58 | AAAGCCGAGG | 0.956
59 | ATGACCCAAT | 1.08
60 | GAAATATTAT | 0.996
61 | CGAGCTATAT | 4.06
62 | CGTGCGTTGA | 0.998
63 | CTATTTGGTT | 0.981
64 | CTAATATAGG | 0.988
65 | AATTGGGTA | 1.03
66 | TTCTTTGAGT | 1.04
67 | AATAGTTTGC | 0.98
68 | AGAGTCACTC | 1.03
69 | AGGGAACTTC | 1
70 | GGAGCACAAC | 2.63
71 | GGTTTCCTGC | 0.971
72 | TTTAGTATAG | 0.995
73 | ACTTGAGCTA | 1.08
74 | TCCACTTTTG | 1.01
75 | TAAGTCGGA | 1.1

Row | Sequence | switch fluorescence ratio
76 | CCGCAGCCTT | 4.56
77 | GCCTAATTCA | 0.945
78 | TTGTTCGGTG | 0.985
79 | TCCATCGGCG | 1.02
80 | CCAAGGTTAG | 0.997
81 | CTTCTATACT | 1.2
82 | CTAGCGGGTA | 1.01
83 | CTGGCGACCT | 1.08
84 | ACGTCGCGG | 0.952
85 | TGATAGACGG | 0.994
86 | CTGTTCTAGG | 1.03
87 | TACCGTGCCC | 1.13
88 | CAGGTGGGCA | 0.96
89 | CGAAGATACG | 1.06
90 | AAGGGTCGAG | 0.994
91 | GGAGTAAGGG | 1.03
92 | AGGGCTACAT | 0.991
93 | CTTTACAGAC | 1.19
94 | CTACACCGGT | 1.04
95 | GCGGTTAAGC | 0.974
96 | GCAGTATTAC | 1.82
97 | TTGGTGAAGC | 1.04
98 | GTAATATCTA | 1.05
99 | TAGTGGGGTT | 1.04
100 | CACGGCCTCA | 1.04

Row | Sequence | switch fluorescence ratio
101 | CCAAAGTTG | 1.13
102 | AAGGGCCCAT | 0.972
103 | ATTTTAGAA | 0.994
104 | TCGGCCTCGG | 1
105 | TTTTGCTGAA | 1
106 | CGCTTTCCGT | 0.988
107 | TACATGACTG | 1.17
108 | AGATAGTTCG | 0.985
109 | GTCGATCGGA | 0.995
110 | TTCCTGGCTA | 1.16
111 | GGAACGCCAA | 1.1
112 | CAACCGTTGA | 1.02
113 | CTCGTGTCGT | 0.998
114 | GGTTCTTGCG | 1.05
115 | CCCATGAGCG | 0.98
116 | GGAGCTTCCT | 2.01
117 | TCAGTGGATC | 0.994
118 | TTCTATAAAC | 1.04
119 | ACTCTCGTTG | 1.03
120 | CGAGGGTTAC | 1.11
121 | CCGCTCCTTA | 1.37
122 | CGGTCTAGGA | 0.938
123 | TGAGTCTTTG | 1.05
124 | AGCAAGACGC | 3.4
125 | GGCAGGGTTA | 0.992

Row | Sequence | switch fluorescence ratio
126 | CTTAGTATGG | 0.939
127 | ACTTAAGGT | 1.03
128 | CTGTACGATA | 1.11
129 | TTGCGTTTCG | 1.02
130 | CCACAGCTTT | 2.36
131 | TTATTGGCCC | 1.05
132 | GACGTCAGGC | 1.05
133 | GGTATCGGTG | 1.02
134 | GGTTTCTTTG | 0.954
135 | CAGGAACCGG | 1.02
136 | CTTGTACCG | 0.97
137 | ACAGAATGGA | 1.03
138 | CAGTTCCAAT | 1.01
139 | CGTTAGACGA | 1
140 | GGACCAACTG | 1.1
141 | GCGTTAGTCC | 1.06
142 | AATGTTGATG | 0.951
143 | ACGAAGTAAG | 0.949
144 | TCGCAGAGTC | 1.29
145 | TTAGGATGAG | 0.987
146 | TGATGGGATA | 0.979
147 | AGCAGGTAAC | 1.16
148 | AATAATCTGA | 0.969
149 | CGGAGTAAAA | 1.05
150 | GAAACGTAT | 1.19
